The source of these data is PubChem BioAssay AID1645882 (National Center for Advancing Translational Sciences (NCATS), 2021).

The whole screen tested about 16,000 compounds, of which about 120 (0.75%) were called active. Not shown: some 4% with an inconclusive outcome. Calls follow the shape of the dose curve; as a rule, active = well fitted inhibition curve with a large enough effect; inconclusive = small, poorly fitted or top-dose-only effect; inactive = no such curve, though single readings can be large or run the other way. This is one part of the list.

UniProt O95398, sequence (O95398 whole entry, looked up): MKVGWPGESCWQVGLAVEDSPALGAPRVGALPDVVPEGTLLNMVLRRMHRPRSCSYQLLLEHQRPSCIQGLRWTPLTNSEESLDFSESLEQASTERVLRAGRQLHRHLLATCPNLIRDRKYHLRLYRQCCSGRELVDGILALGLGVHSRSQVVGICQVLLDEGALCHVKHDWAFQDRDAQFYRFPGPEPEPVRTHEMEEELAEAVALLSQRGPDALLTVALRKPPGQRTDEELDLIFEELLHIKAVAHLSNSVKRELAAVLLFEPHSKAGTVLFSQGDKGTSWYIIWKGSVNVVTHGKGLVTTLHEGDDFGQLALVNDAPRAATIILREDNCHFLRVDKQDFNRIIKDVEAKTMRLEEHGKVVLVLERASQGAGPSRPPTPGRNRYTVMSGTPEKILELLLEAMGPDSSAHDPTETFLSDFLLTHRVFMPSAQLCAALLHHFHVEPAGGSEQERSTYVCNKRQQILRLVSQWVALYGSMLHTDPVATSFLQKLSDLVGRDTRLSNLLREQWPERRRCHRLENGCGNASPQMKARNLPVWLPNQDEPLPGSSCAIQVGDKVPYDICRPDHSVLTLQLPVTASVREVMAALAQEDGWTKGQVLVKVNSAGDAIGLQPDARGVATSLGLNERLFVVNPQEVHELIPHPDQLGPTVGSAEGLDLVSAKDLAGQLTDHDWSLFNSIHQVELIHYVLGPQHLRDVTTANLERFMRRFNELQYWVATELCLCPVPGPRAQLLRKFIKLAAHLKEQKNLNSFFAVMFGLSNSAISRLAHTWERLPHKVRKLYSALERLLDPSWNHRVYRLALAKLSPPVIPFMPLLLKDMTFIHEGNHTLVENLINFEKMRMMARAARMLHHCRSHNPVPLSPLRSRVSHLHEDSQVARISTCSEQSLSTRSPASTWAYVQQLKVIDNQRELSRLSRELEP

The test deals with Rap guanine nucleotide exchange factor 3 (Homo sapiens) (UniProt O95398). In words: Validation qHTS for antagonist of cAMP-regulated guanine nucleotide exchange factor 3 (EPAC1). Also: nearly all actives have a fitted effect of over 75% in size. The conditions noted are these: EPAC1 Rap1B-BODIPY-GDP exchange, fluorescence; series mostly up to 150 µM; activity change, negative = inhibition: at the top concentration. Put shortly:
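EPAC1 (100 nM) mixed with 250 nM RAP1B-BODIPY-GDP and 50 uM GDP; compounds in concentration series, 5 min at room temperature. Fluorescence (ex 480/em 540 nm) read every 5 min for 30 min; normalized to ATA control and DMSO.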
Consider `CC[C@@H]1[C@H]2CCCC(=O)N3CC[C@@H](C[C@@H]1OC(=O)Nc1ccc4c(c1)OCO4)[C@@H]23`, for which the “activity change, negative = inhibition” value is inactive: -7.91%.
The value for `CN(C)CC(C)(O)c1ccc2c(c1)CN(Cc1cccn1-c1ncccn1)CCO2` (stereo not given) was inactive: 9.42%.
The value for `CC(=O)NC1C(O)C[C@@](O)(C(=O)O)OC1[C@@H](O)C(O)CO` (stereo not given in full) was inactive: 22.4%; that for `CCCCCc1c2c(cc(O)c1C(=O)O)OC(=O)c1c(cc(OC)cc1C(=O)CCCC)O2` was inactive: -2.86%.
Take `O=C(Nc1cccc(F)c1)N1CCCC2(CCN(S(=O)(=O)c3ccccc3)CC2)C1`: the “activity change, negative = inhibition” value is inactive: 9.15%.
Turning to `N[C@H](C(=O)O)c1ccc(O)c(C(=O)O)c1`, the activity change, negative = inhibition result was “inactive”.
Regarding `CS(=O)(=O)N1CCC2(CCCN(Cc3ccc(C#N)cc3)C2)CC1`, the “activity change, negative = inhibition” value was inactive: 17%.
Consider `O=c1c(-c2cc(F)cc(F)c2)nc2cncnc2n1Cc1ccccc1Cl`, for which the “activity change, negative = inhibition” value was inactive: -5.85%.
The value for `N#Cc1ccc(C(c2ccc(C#N)cc2)n2cncn2)cc1` was inactive: 17.7% [at 75.8 µM]; that for `CN(C)c1ncc2nc(-c3ccc(Cl)cc3)c(=O)n(C)c2n1` was inactive: 2.86%.
The value for `CS(=O)(=O)Nc1cccc(-c2cc(Nc3ccccc3)ncn2)c1` was inactive: 2.07%; that for `C[N+](C)(CCOc1ccccc1)Cc1cccs1` was inactive: 12.9%; that for `C[N+]1(C)CCC(OC(=O)C(O)(c2ccccc2)C2CCCC2)C1` (stereo not given) was “inactive”.
Turning to `O=C(c1ccncc1)N1CCC2(CCCN(Cc3nccs3)C2)CC1`, the “activity change, negative = inhibition” value is inactive: 3.89%.
The value for `CCCCCCCCCCCCCCCCCCOCC(O)CO` (stereo not given) was inactive: 3.08%.
The value for `O=C(c1cccc(F)c1)N1CCC2(CC1)CCN(c1cccc(-c3ccccc3)c1)CC2` was inactive: 6.07%; that for `CC(C)C(NS(C)(=O)=O)c1nnc2n1CCN(Cc1ccc(C#CC(C)(C)O)cc1)CC2` (stereo not given) was inactive: 15%; that for `CCC1CN(CC(=O)NCc2ccc3c(c2)OCO3)Cc2ccc(Cl)cc2O1` (stereo not given) was inactive: 13.3%.
In the case of `CNC(=O)[C@@H]1C[C@@H](NCc2cccc(Oc3ccccc3)c2)CN1C(C)C` it was inactive: 11.9%.
`O=Cc1ccccc1-c1cn(CCCOCc2ccccc2)nn1`: the “activity change, negative = inhibition” value was inactive: -1.91%.
In the case of `O=C(O)c1cn(-c2ccc(F)cc2)c2cc(N3CCNCC3)c(F)cc2c1=O` it was inactive: 8.11%; in that of `C#C[C@]1(O)CCC2C3CCC4=Cc5oncc5C[C@@]4(C)C3CC[C@@]21C` (stereo not given in full), inactive: -7.73%.
With `CCCCCCCCCCCCCCC[C@@H](O)[C@H](CO)NC(C)=O`, the activity change, negative = inhibition is inactive: 19.9% [at 15.3 µM].
The value for `COc1ccc(C(=O)NCCN2Cc3ccccc3OC(c3ccsc3)C2)c(OC)n1` (stereo not given) was inactive: -10.3%; that for `Cc1cnc(C)c(-c2cc(F)cc3c2OC(CNC(=O)CN2CCCC2)C3)n1` (stereo not given) was inactive: 1.63%.
In the case of `CN(C)C(=O)c1ccc(-c2ccc3ncnc(N4CCNCC4)c3c2)cc1` it was inactive: -7.27%; in that of `Cc1nc2ccc(C(=O)N3CCc4c(cnc(C)c4CNC(=O)/C=C/c4cccs4)C3)cc2nc1C`, inactive: 9%.
Regarding `Nc1nc2c([nH]c(=S)n2C2OC(CO)C(O)C2O)c(=O)[nH]1` (stereo not given), the “activity change, negative = inhibition” value was inactive: 24%.
The value for `O=c1c(-c2cccs2)nc2cnc(N3CCOCC3)nc2n1Cc1ccc(F)cc1` was inactive: 9.84%; that for `Cc1cccc2nc(CNC(=O)CN3Cc4cc(Cl)ccc4OC(C)C3)cn12` (stereo not given) was inactive: 8.16%; that for `C[C@@H](NCc1cc(Br)cc2[nH]c(=O)c(=O)[nH]c12)P(=O)(O)O` was inactive: 5.27%.
In the case of `C[C@@](N)(C(=O)O)[C@@H]1C[C@@H]1C(=O)O` it was inactive: 29.1%; in that of `C[C@@H]1C[C@H]2[C@@H]3C[C@H](F)C4=CC(=O)C=C[C@]4(C)[C@@]3(F)[C@@H](O)C[C@]2(C)[C@@]1(O)C(=O)CO`, inactive: 17.5% [at 75.8 µM]; in that of `CC(=O)N1CCC2(CC1)CCN(C(=O)Nc1cccc(F)c1)CC2`, inactive: 17.4%.
Consider `CS(=O)(=O)N1CCC2(CCN(C(=O)Nc3cccc(C#N)c3)CC2)CC1`, for which the “activity change, negative = inhibition” value is inactive: 17%.
The value for `COc1ccc(NC(=O)N2CCCC3(CCN(C(C)=O)CC3)C2)cc1` was inactive: 12%; that for `O=C(O)Cc1ccc(-c2ccccc2)cc1` was inactive: -8.12% [at 75.8 µM]; that for `Clc1ccccc1-c1ccc2ncnc(NC3CCNCC3)c2c1` was inactive: 14.7%.
Take `CC(=O)NCCNc1ncnc2ccc(-c3ccccc3C#N)cc12`: the “activity change, negative = inhibition” value was inactive: 3.28%.
With `COc1ccccc1-c1ccc2ncnc(N3CCOCC3)c2c1`, the “activity change, negative = inhibition” value is inactive: 7.63%.
In the case of `CN1C2CCC1CC(OC(=O)c1c[nH]c3ccccc13)C2` (stereo not given) it was inactive: 2.34% [at 75.8 µM]; in that of `Cc1ccccc1OCC(O)CNCCOc1ccc(C(N)=O)cc1` (stereo not given), inactive: 19.1%; in that of `O=C(NCCc1nnc2n1CCN(Cc1c(F)cccc1F)CC2)c1ccc(F)cc1`, inactive: -7%.
In the case of `CC(C)NC[C@H](O)c1ccc2ccccc2c1` it was inactive: 4.28%.
The value for `O=C(Nc1cccc(F)c1)N1CCCC2(CCN(C(=O)c3cccc(F)c3)CC2)C1` was inactive: 18%; that for `COc1ccc(-c2nc3cnc(OC)nc3n(C[C@H]3CCCO3)c2=O)cc1` was inactive: 16.1%; that for `Cc1ccnc2cc(Cl)cc(Cl)c12` was inactive: -22.9%.
As to `CC(=O)Oc1ccc2c(c1OC(C)=O)OCC1(O)Cc3c(cc(OC(C)=O)c(OC(C)=O)c3OC(C)=O)C21` (stereo not given), the “activity change, negative = inhibition” value was inactive: -11%.
In the case of `CCCCCCCCCCCCCCCC(=O)O[C@H]1[C@@H](O)[C@@H](O)[C@@H]([C@H](NC(=O)[C@@H]2C[C@@H](CCC)CN2C)[C@H](C)Cl)O[C@@H]1SC` it was inactive: -5.3%.
In the case of `O=C(c1ccncc1)N1CCC[C@@]2(CCN(Cc3ccccc3)C2)C1` it was inactive: 5.51%.
